Measured values from PubChem BioAssay AID1508642 (National Center for Advancing Translational Sciences (NCATS), 2021).
The whole screen tested about 43,000 compounds, of which about 200 (0.47%) were called active. The inconclusive results got no clear call from the source; some entries with a clear call stand among them for comparison. Calls follow the shape of the dose curve; as a rule, active = well fitted cell-killing curve with a large enough effect; inconclusive = small, poorly fitted or top-dose-only effect, or effect the other way; inactive = flat fitted curve, though single readings scatter. Potencies of inconclusive entries are doubtful fits and often do not repeat.

test: Cell viability qHTS assay in S16 Pmp22-F2sN cells; conditions: S16 Pmp22-F2sN Schwann cells (luciferase reporters placed in the Pmp22 gene) viability, CellTiter-Glo, 24 h; series mostly up to 57.5 µM; also: nearly all actives have a fitted effect of over 65% in size
Method in brief: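 Rat S16 Schwann reporter line, 24 h treatment with library compounds delivered at 23 nL per well. Cell viability by CellTiter-Glo luminescence.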
Potency is read from the fitted curve at half-maximal effect; tags tell the direction and shape of the fitted curve.

| SMILES | Potency |
| --- | --- |
| O=C(NC1CCCCC1)c1ccc(CSc2nc3ccncc3n2Cc2ccccc2)cc1 | inconclusive: 31.6 µM [cytotoxic, single point] |
| O=C(NCCc1ccccc1)c1ccc(Cn2c(=O)c3cccn3c3cccnc32)cc1 | inactive |
| CCCS(=O)(=O)NCCc1csc2nc(-c3ccc(C)cc3)nn12 | inconclusive: 39.8 µM [cytotoxic, single point] |
| CCOc1ccc(NC(=O)C2CCCN(c3nn4cc(-c5ccc(OC)cc5)nc4s3)C2)cc1 (configuration not stated) | inactive |
| Cc1ccccc1OCCCn1c(CCNC(=O)C2CCCCC2)nc2ccccc21 | inconclusive: 39.8 µM [cytotoxic, partial curve, poor fit] |
| COCCN(Cc1ccco1)C(=O)c1cc2c(Cl)nc3ccc(C)cc3c2s1 | inactive |
| CCOC(=O)c1c(NC(=O)CSc2cn(CCNC(=O)c3ccc(OC)c(OC)c3)c3ccccc23)sc2c1CCC2 | inconclusive: 39.8 µM [rising, partial curve, poor fit] |
| Cc1cccc(N2CCN(c3nc4ccc(C(=O)c5ccccc5)cc4n4cnnc34)CC2C)c1 (configuration not stated) | inconclusive: 0.199 µM [rising, full curve, poor fit] |
| CCOc1ccccc1CNC(=O)C1CCN(C(=O)N2CCOc3ccc(Cl)cc32)CC1 | inconclusive: 28.2 µM [cytotoxic, partial curve, poor fit] |
| COc1ccc(N2Cc3cccc(C(=O)Nc4ccc(C)cc4)c3C2=O)cc1 | inconclusive: 7.08 µM [cytotoxic, single point] |
| CCC(=O)N1CCc2cc(Br)cc(S(=O)(=O)NCc3cccc(OC)c3)c21 | inconclusive: 39.8 µM [rising, single point] |
| CCOC(=O)c1ccccc1NC(=O)c1c(-c2ccccc2)noc1C | inconclusive: 14.1 µM [cytotoxic, partial curve, poor fit] |
| CC(C)(C)OC(=O)N1CCC(c2c(C(=O)NCCCN3CCc4ccccc4C3)cnn2-c2ccccc2)CC1 | inconclusive: 22.4 µM [cytotoxic, single point] |
| Cc1cc(C)cc(NC(=O)CCCN2C(=O)COc3ccc(C)cc32)c1 | inconclusive: 31.6 µM [cytotoxic, partial curve, poor fit] |
| Cc1ccc(NC(=O)c2cn3c4c(ccc(Cl)c4c2=O)OC(C)C3)c(C)c1 (configuration not stated) | inconclusive: 0.0398 µM [rising, full curve, poor fit] |
| CC(C)c1ccc(NC(=O)C2CCN(c3nc(-c4ccc(C(C)C)cc4)no3)CC2)cc1 | inconclusive: 25.1 µM [cytotoxic, partial curve, poor fit] |
| COc1ccc(Br)c(C(=O)Nc2cc3c(cc2N2CCCCC2)n(C)c(=O)c(=O)n3C)c1 | inconclusive: 39.8 µM [cytotoxic, single point] |
| O=C(CCCn1c(=O)c2ccccc2n(Cc2ccc(F)cc2Cl)c1=O)NCCc1ccc(Cl)cc1 | inconclusive: 8.91 µM [rising, partial curve, poor fit] |
| COC(=O)c1ccccc1NC(=O)c1nc(S(=O)(=O)Cc2cccc(C)c2)ncc1Cl | inconclusive: 25.1 µM [cytotoxic, partial curve, poor fit] |

| SMILES | Potency |
| --- | --- |
| Cc1ccccc1Cn1nnc2c(=O)[nH]c(C3CCCN(C(=O)c4ccc(F)cc4)C3)nc21 (configuration not stated) | inconclusive: 25.1 µM [rising, single point] |
| COc1ccc(NC(=O)CC2C(=O)N(c3ccc(C)cc3)C(=O)N2Cc2ccc3c(c2)OCO3)cc1 (configuration not stated) | inactive |
| CCC(C)n1c(SCc2c(F)cccc2Cl)nc2ccsc2c1=O (configuration not stated) | inconclusive: 39.8 µM [cytotoxic, single point] |
| Cc1cccc2sc(N(Cc3cccnc3)C(=O)CCS(=O)(=O)c3ccccc3)nc12 | inconclusive: 25.1 µM [cytotoxic, partial curve, poor fit] |
| COc1cc(C(=O)Nc2ccccc2OCc2cc(=O)n3c(C)csc3n2)cc(OC)c1OC | inconclusive: 20 µM [rising, partial curve, poor fit] |
| Fc1ccc(F)c(Nc2c3c(nc4ccc(Cl)cc24)CCC3)c1 | inactive |
| O=C(CNC(=O)c1ccccc1Cl)OCc1cc(=O)n2nc(C3CC3)sc2n1 | inactive |
| CCOc1ccc(C2c3c(-c4ccccc4O)n[nH]c3C(=O)N2Cc2cccnc2)cc1OC (configuration not stated) | inconclusive: 31.6 µM [cytotoxic, single point] |
| COc1cccc2sc(N(Cc3cccnc3)C(=O)C3CCCCC3)nc12 | inconclusive: 39.8 µM [cytotoxic, single point] |
| COC(=O)c1ccc(C2c3c(-c4ccc(Br)cc4)n[nH]c3C(=O)N2c2ccc(Cl)cc2)cc1 (configuration not stated) | inconclusive: 28.2 µM [cytotoxic, single point] |
| Cc1cccc(NC(=O)CSc2ncc3c(n2)-c2cc(Cl)ccc2N(C)S3(=O)=O)c1C | inconclusive: 39.8 µM [cytotoxic, single point] |
| CC(C)c1ccc(Nc2cc(C(=O)NCCCN(C)Cc3ccccc3)c3ccccc3n2)cc1 | inactive |
| Cc1oc(-c2ccc(C(=O)NCCCOC(C)C)cc2)nc1CS(=O)(=O)c1ccccc1 | inconclusive: 0.398 µM [cytotoxic, full curve, poor fit] |
| Cc1ccccc1Cn1c(=O)n(CC2CCC(C(=O)N3CCC(C)CC3)CC2)c(=O)c2sccc21 (configuration not stated) | inconclusive: 35.5 µM [cytotoxic, single point] |
| CCOC(=O)c1c(C)[nH]c(C)c1S(=O)(=O)N(C)CC(=O)Nc1cccc(Cl)c1C | inconclusive: 2.24 µM [cytotoxic, full curve, poor fit] |
| Cc1ccc(NCc2cccn2-c2nnc(N3CCC(C(=O)NCc4ccccc4C)CC3)s2)cc1 | inconclusive: 39.8 µM [cytotoxic, partial curve, poor fit] |
| CN(C(=O)CSc1nc2ccc(NC(=O)COc3ccc(F)cc3)cc2s1)c1ccccc1 | inconclusive: 25.1 µM [cytotoxic, single point] |
| CCN(CC)C(=O)c1sc2c(c1C)c(=O)n(-c1ccc(OC)cc1OC)c(=O)n2Cc1cc(C)ccc1C | inconclusive: 39.8 µM [cytotoxic, single point] |
